Data from the supplement of paper PMC8285479.
Counter-ions that a name gives are not always drawn. ± gives the standard deviation of the averaged measurements. In all, about 1,900 compounds were measured (“normalised cell viability (NPI; 0 = phenylarsine oxide control, 1 = DMSO control)”: median about 1, lowest 2% from about 0.039 on). This is one part of the list.

Test system: NCI-H1944
Test: normalised cell viability (NPI; 0 = phenylarsine oxide control, 1 = DMSO control) (fraction of DMSO control); NCI-H1944 is a non-small cell lung cancer line; higher = more viable cells (less compound toxicity)
Details: 6 days
[1] = glucocorticoid arm: hydrocortisone 2.75 uM co-treatment, compound 1 µM
[2] = glucocorticoid arm: hydrocortisone 2.75 uM co-treatment, compound 5 µM
[3] = glucocorticoid arm: hydrocortisone 2.75 uM pre-treated 2 days and continued, compound 1 µM
[4] = glucocorticoid arm: hydrocortisone 2.75 uM pre-treated 2 days and continued, compound 5 µM
[5] = glucocorticoid arm: vehicle, compound 1 µM
[6] = glucocorticoid arm: vehicle, compound 5 µM
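Further: CTB read-out in 384-well plates, mean of triplicate wells, normalised per plate against 1 µM phenylarsine oxide and 0.1% DMSO, compounds added 24 h after seeding.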

| Compound | normalised cell viability [1] | normalised cell viability [2] | normalised cell viability [3] | normalised cell viability [4] | normalised cell viability [5] | normalised cell viability [6] |
| --- | --- | --- | --- | --- | --- | --- |
| CCC(=O)CCCCC[C@@H]1NC(=O)[C@H]2CCCCN2C(=O)[C@H]([C@@H](C)CC)NC(=O)[C@H](Cc2cn(OC)c3ccccc23)NC1=O [Apicidin] | 0.387 ± 0.16 | 0.954 ± 0.041 | 0.644 ± 0.15 | 0.983 ± 0.03 | 0.0476 ± 0.028 | 0.96 ± 0.022 |
| O=C1CCCN1CC#CCN1CCCC1 [Oxotremorine sesquifumarate salt] | 1.007 ± 0.0058 | 1.02 ± 0.027 | 0.993 ± 0.019 | 1.03 ± 0.072 | 1.003 ± 0.0058 | 1.005 ± 0.0092 |
| NC(Cn1oc(=O)[nH]c1=O)C(=O)O (single isomer, unassigned; (+)) [(+)-Quisqualic acid] | 1.01 ± 0.01 | 0.973 ± 0.028 | 1.01 ± 0.031 | 1.01 ± 0.021 | 1.01 ± 0.012 | 1.005 ± 0.0087 |
| NNC(=O)c1ccc(O)cc1 [4-Hydroxybenzhydrazide] | 1.01 ± 0.013 | 0.992 ± 0.015 | 0.996 ± 0.015 | 0.989 ± 0.011 | 1.006 ± 0.0063 | 1.001 ± 0.0085 |
| COc1ccc(Cc2nccc3cc(OC)c(OC)cc23)cc1OC [Papaverine hydrochloride] | 0.9937 ± 0.0023 | 0.969 ± 0.007 | 0.989 ± 0.0062 | 1.01 ± 0.026 | 1.013 ± 0.0058 | 1.02 ± 0.017 |
| CNCCc1c[nH]c2ccc(O)cc12 [N-omega-Methyl-5-hydroxytryptamine oxalate salt] | 0.99 ± 0.01 | 0.958 ± 0.035 | 0.986 ± 0.011 | 1 ± 0.086 | 0.97567 ± 0.00058 | 0.977 ± 0.013 |
| NCCCP(=O)(O)O [3-Aminopropylphosphonic acid] | 1.001 ± 0.0081 | 1 ± 0.02 | 1.01 | 0.9885 ± 0.0021 | 0.996 ± 0.0069 | 1.003 ± 0.0061 |
| CN1C2CC(O)CC1C1OC12 (centres undefined) [Scopine] | 1.02 ± 0.02 | 0.985 ± 0.028 | 1.02 ± 0.011 | 1.01 | 1.003 ± 0.0064 | 1.01 ± 0.035 |
| O=C[C@H](Cl)[C@@H](O)[C@H](O)[C@H](O)CO [2-Chloro-2-deoxy-D-glucose] | 1 ± 0.013 | 0.9953 ± 0.0015 | 1.01 ± 0.012 | 0.994 ± 0.01 | 0.9807 ± 0.0011 | 0.9817 ± 0.0067 |
| NNC(N)=O [Semicarbazide hydrochloride] | 1 ± 0.0087 | 1 ± 0.013 | 1.02 ± 0.035 | 1.01 ± 0.01 | 0.9933 ± 0.0011 | 0.986 ± 0.003 |
| CNCC(=O)c1ccc(O)c(O)c1 [Adrenalone HCl] | 1.01 ± 0.01 | 1 ± 0.018 | 1.01 ± 0.01 | 1.02 ± 0.015 | 1.001 ± 0.0082 | 1.007 ± 0.0058 |
| C=C(C)[C@H]1Cc2c(ccc3c2O[C@@H]2COc4cc(OC)c(OC)cc4[C@@H]2C3=O)O1 [Rotenone] | 0.627 ± 0.064 | 0.39 ± 0.013 | 0.969 ± 0.016 | 0.685 ± 0.094 | 0.22 ± 0.011 | 0.115 ± 0.019 |
| COC(=O)C1=CCCN(C)C1 [Arecoline] | 0.994 ± 0.02 | 0.9957 ± 0.0059 | 1 ± 0.016 | 1 ± 0.012 | 0.995 ± 0.007 | 1.007 ± 0.0058 |
| COC(=O)C1=CCCN(C)C1 [Arecoline hydrobromide] | 1 ± 0.021 | 1.01 ± 0.022 | 0.988 ± 0.014 | 1 | 0.999 ± 0.011 | 1.007 ± 0.0058 |
| N[C@@H](CCl)C(=O)O [beta-Chloro-L-alanine hydrochloride] | 1.002 ± 0.0076 | 1.01 ± 0.015 | 0.9987 ± 0.0023 | 0.985 ± 0.036 | 0.991 ± 0.01 | 0.99 ± 0.011 |
| Fc1ccc(C(OCCN2CCN(CCCc3ccccc3)CC2)c2ccc(F)cc2)cc1 | 0.963 ± 0.014 | 0.601 ± 0.013 | 0.991 ± 0.013 | 1.01 ± 0.027 | 1.01 ± 0.01 | 0.721 ± 0.28 |
| CC[C@H]1CN2CCc3cc(OC)c(OC)cc3[C@@H]2C[C@@H]1C[C@H]1NCCc2cc(OC)c(OC)cc21 [Emetine dihydrochloride hydrate] | 0.0625 ± 0.016 | 0.0175 ± 0.00036 | 0.342 ± 0.016 | 0.165 ± 0.0093 | 0.0125 ± 0.001 | 0.0108 ± 0.0029 |
| COc1cc([C@@H]2c3cc4c(cc3[C@H](O)[C@H]3COC(=O)[C@H]23)OCO4)cc(OC)c1OC [Podophyllotoxin] | 0.338 ± 0.0087 | 0.278 ± 0.027 | 0.927 ± 0.019 | 0.892 ± 0.07 | 0.0738 ± 0.0056 | 0.057 ± 0.011 |
| CS(=N)(=O)CC[C@H](N)C(=O)O (stereo partly drawn) [L-Methionine sulfoximine] | 1.003 ± 0.0058 | 1.01 ± 0.024 | 0.998 ± 0.01 | 0.948 ± 0.093 | 0.9987 ± 0.0023 | 1 ± 0.013 |
| CCN(CCCl)CCOC(C)=O [Acetylethylcholine mustard hydrochloride] | 1.01 ± 0.015 | 1.02 ± 0.034 | 1.01 ± 0.013 | 1.11 ± 0.061 | 0.995 ± 0.0046 | 1.01 ± 0.015 |
| COc1ccc2c(c1)/C(=C/c1cnc[nH]1)C(=O)N2 | 1.03 ± 0.015 | 0.24 ± 0.0031 | 1.03 | 0.871 ± 0.28 | 0.9907 ± 0.006 | 0.132 ± 0.041 |
| CCCN(CCC)CCc1ccc(O)c(O)c1 [Dipropyldopamine hydrobromide] | 0.997 ± 0.015 | 0.999 ± 0.018 | 0.9943 ± 0.0081 | 0.984 ± 0.024 | 0.9893 ± 0.0042 | 0.9947 ± 0.0015 |
| Ic1ccccc1CNC1C2CCN(CC2)C1C(c1ccccc1)c1ccccc1 [L-703,606 oxalate] | 0.9813 ± 0.0067 | 0.699 ± 0.05 | 1.013 ± 0.0058 | 1.04 ± 0.086 | 1.013 ± 0.0058 | 0.132 ± 0.059 |
| NCCc1c[nH]c2ccc(O)cc12 [Serotonin hydrochloride] | 1 ± 0.015 | 0.98 ± 0.015 | 1 ± 0.013 | 0.964 ± 0.021 | 1.02 ± 0.01 | 1.01 ± 0.01 |
